This passage reports relative growth results from the supplement of paper PMC9446081.

Each structure is given as a SMILES string. The campaign covered roughly 39,000 compounds. About 220 (0.56%) showed activity. Some of the results follow.
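Further: static incubation at 37 °C against the wild-type strain, values averaged over two biological replicates.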

The test system of this test is Escherichia coli K-12 BW25113. In words: relative growth (OD600 normalised to plate interquartile mean) (fraction); higher = less growth inhibition, active = 0.2 or less. Conditions: 50 µM; LB; incubation time: overnight (16-24 h).
As to `O=C(C[C@@H]1CC[C@@H]2[C@H](COC[C@@H](O)CN2C(=O)Nc2ccc3c(c2)OCO3)O1)N1CCN(c2ccccc2)CC1`, the relative growth is inactive: 0.988.
To `C[C@H](CO)N1C[C@H](C)[C@H](CN(C)CC2CC2)OCCCC[C@H](C)Oc2ccc(NC(=O)Nc3ccc(F)cc3)cc2C1=O` belongs inactive: 0.983; to `CC(C)c1ccc2c(c1)C(=O)[C@H](N)CCO2`, inactive: 0.971; to `C[C@H]1CN([C@@H](C)CO)C(=O)c2cc(NC(=O)C3CC3)ccc2O[C@@H]1CN(C)S(=O)(=O)c1ccccc1`, inactive: 0.993.
To `COc1ccc(NC(=O)N(C)C[C@@H]2Oc3ccc(NC(=O)Nc4ccc(C(F)(F)F)cc4)cc3CC(=O)N([C@H](C)CO)C[C@@H]2C)cc1` belongs inactive: 1.02; to `CC(C)NC(=O)N(C)C[C@@H]1OCCCC[C@@H](C)Oc2ccc(NC(=O)CCCCCC(=O)Nc3ccccc3N)cc2C(=O)N([C@H](C)CO)C[C@H]1C`, inactive: 0.997; to `Cc1ccc(S(=O)(=O)Nc2ccc3c(c2)C(=O)N([C@H](C)CO)C[C@H](C)[C@H](CN(C)C(=O)Nc2ccc(C(F)(F)F)cc2)OCCCC[C@H](C)O3)cc1`, inactive: 1.03.
Turning to `C=CC[C@H](CC(=O)NCCO)C(=O)N[C@H](COC(=O)[C@@H](CC=C)CC(=O)OC(C)(C)C)c1ccccc1`, the relative growth was inactive: 1.01.
For `CN1C(=O)c2cc(NC(=O)c3cscn3)ccc2OC[C@@H]2O[C@H](CC(=O)N3CCOCC3)CC[C@H]21` the value was inactive: 1.01; for `C[C@@H]1CN([C@H](C)CO)C(=O)c2cc(C#CCc3ccccc3)cnc2O[C@H]1CN(C)CC1CCOCC1`, inactive: 1.02.
In the case of `COCC(=O)Nc1ccc2c(c1)C(=O)N(C)C[C@@H](OC)[C@@H](C)CN(C(=O)Cc1ccccn1)[C@@H](C)CO2`, the relative growth is inactive: 0.989.
For `CCCNC(=O)N1C[C@H](O)COC[C@@H]2O[C@@H](CC(=O)NCCCN3CCOCC3)CC[C@H]21` the value was inactive: 1.02; for `C[C@H](CO)N1C[C@H](C)[C@@H](CN(C)C(=O)Nc2ccc(C(F)(F)F)cc2)OCCCC[C@H](C)Oc2ccc(NC(=O)CCC(F)(F)F)cc2C1=O`, inactive: 1.02.
For `C[C@@H]1CN([C@@H](C)CO)C(=O)c2cc(NC(=O)Nc3ccccc3)ccc2O[C@@H](C)CCCCO[C@H]1CN(C)C(=O)OC(C)(C)C` the value was inactive: 0.998.
For `C[C@H]1CN([C@@H](C)CO)C(=O)c2cc(NS(C)(=O)=O)ccc2O[C@H]1CN(C)C(=O)Nc1ccc(C(F)(F)F)cc1` the value was inactive: 1.01.
Turning to `C[C@@H]1CN([C@@H](C)CO)C(=O)Cc2cc(NC(=O)CCN3CCOCC3)ccc2O[C@H]1CN(C)S(=O)(=O)c1ccc(F)cc1`, the relative growth is inactive: 1.01.
For `CCn1nc(C)cc1C(=O)NN` the value was inactive: 1.02; for `COc1ccc(S(=O)(=O)Nc2ccc3c(c2)C(=O)N([C@H](C)CO)C[C@H](C)[C@H](CN(C)C(=O)Nc2cccc4ccccc24)O3)cc1`, inactive: 1.03.
For `C=CCN1C(=O)[C@]2(O[C@H](CCn3cc(CCO)nn3)[C@@H]([Si](C)(C)c3ccc(OC)cc3)[C@@H]2C)c2cc(N3CCC3=O)ccc21`, the relative growth was inactive: 1.02.
For `CCCN1C[C@@H](C)[C@H](OC)CN(C)C(=O)c2cc(NS(=O)(=O)c3cn(C)cn3)ccc2OC[C@@H]1C`, the relative growth is inactive: 0.953.
To `Nc1nc(Cl)nc2c1ncn2[C@H]1C[C@@H](O)[C@@H](COP(=O)(O)OP(=O)(O)OP(=O)(O)O)O1` belongs inactive: 1.01; to `C[N+](C)(C)CCCCNC(=O)[C@H]1C[C@H]2C(=O)N[C@@H](CCCC[N+](C)(C)C)C(=O)N2[C@H]1c1cccc(OCCO)c1`, inactive: 1.03; to `Cc1cc(Nc2cc(C)on2)nc([C@H]2CCN(C(=O)CN)C2)n1`, inactive: 0.914.
For `C[C@H](CO)N1C[C@H](C)[C@@H](CN(C)Cc2ccc(C(F)(F)F)cc2)OCCCC[C@H](C)Oc2ccc(NC(=O)Nc3ccccc3)cc2C1=O` the value was inactive: 0.992; for `COc1cccc(NC(=O)N2C[C@H](O)COC[C@@H]3O[C@H](CC(=O)NCCCN4CCOCC4)CC[C@H]32)c1`, inactive: 1.02; for `COc1ccc(NC(=O)N(C)C[C@H]2OCCCC[C@@H](C)Oc3ccc(NC(=O)c4ccccc4)cc3C(=O)N([C@H](C)CO)C[C@@H]2C)cc1`, inactive: 0.939.
As to `C[C@@H]1CN([C@H](C)CO)C(=O)c2cc(NC(=O)CCCCCC(=O)Nc3ccccc3N)ccc2O[C@@H](C)CCCCO[C@@H]1CN(C)S(=O)(=O)c1ccc(Cl)cc1`, the relative growth was inactive: 1.03.
To `Cc1cc(N)[nH]n1` belongs inactive: 1.03; to `Cc1cc(C(=O)Nc2cccc3c2O[C@H](CN(C)C(=O)Nc2ccccc2)[C@@H](C)CN([C@H](C)CO)C3=O)n(C)n1`, inactive: 1.01.
For `Cc1noc(C)c1S(=O)(=O)Nc1ccc2c(c1)C(=O)N([C@@H](C)CO)C[C@H](C)[C@@H](CN(C)Cc1ccc(C(F)(F)F)cc1)OCCCC[C@@H](C)O2` the value was inactive: 0.963; for `C[C@H]1CN([C@@H](C)CO)C(=O)c2cc(NS(=O)(=O)c3cccs3)ccc2O[C@H]1CN(C)C(=O)Nc1cccc2ccccc12`, inactive: 0.917.
To `O=C(C[C@H]1C[C@H]2c3cc(NC(=O)NC4CCCC4)ccc3O[C@H]2[C@@H](CO)O1)NCc1ccc(-c2ccccc2)cc1` belongs inactive: 0.984; to `C[C@@H]1CN([C@H](C)CO)C(=O)c2cc(NS(C)(=O)=O)ccc2O[C@@H]1CN(C)Cc1ccc2c(c1)OCO2`, inactive: 1.01; to `Cc1noc(C)c1S(=O)(=O)Nc1ccc2c(c1)C(=O)N([C@H](C)CO)C[C@H](C)[C@@H](CN(C)C(=O)Nc1ccc(C(F)(F)F)cc1)OCCCC[C@H](C)O2`, inactive: 1.01.
On to `C[C@@H]1CN([C@H](C)CO)C(=O)Cc2cc(NC(=O)Cn3cnnn3)ccc2O[C@H]1CN(C)C(=O)Nc1ccc(F)cc1`, for which the relative growth was inactive: 0.988.
For `Cc1ccc(S(=O)(=O)N2C[C@H](O)COC[C@@H]3O[C@@H](CC(=O)NCc4ccc(Cl)c(Cl)c4)CC[C@H]32)cc1` the value was inactive: 1; for `Cc1noc(C)c1NC(=O)Nc1ccc2c(c1)C(=O)N([C@@H](C)CO)C[C@@H](C)[C@H](CN(C)Cc1ccc(Oc3ccccc3)cc1)O2`, inactive: 1.01.
